Assay results from patent publication US20150209335A1, “METHODS AND SMALL MOLECULE THERAPEUTICS COMPRISING FUSED ELPS” (UNIVERSITY OF SOUTHERN CALIFORNIA, priority 2012, published 2015).

Experiment: Rapa encapsulation and release from ELP nanoparticles, dialysis under sink conditions, RP-HPLC
Type: physicochemical
Protocol: Dialysis under sink conditions was used track the loss of Rapa from the nanoparticles. Mean±SD (n=3).
A two phase method was developed to encapsulate Rapa into the ELP nanoparticles. An aqueous phase PBS containing S48I48 or FKBP-S48I48 was mixed with an organic phase hexane/EtOH containing Rapa in a small glass vial. The vial was kept stirred and heated up to the CMT of S48I48 or FKBP-S48I48. A nitrogen flow was applied to facilitate the evaporation of the hexane/EtOH phase. A 13.2K 10 min centrifugation was performed to remove the insoluble Rapa after the organic phase evaporated out. 100 μL of the sample was filtered and injected into a C-18 reverse phase HPLC column to analyze the amount of the Rapa that was initially encapsulated. Rapa releasing experiment was performed under a sink condition of H2O dialysis. Samples were collected in the dialysis cassette at time points of 0 h, 1 h, 2 h, 4 h, 6 h, 9 h, 19.5 h, 27 h, 31 h and 48 h. RP-HPLC was used to determine the amount of Rapa that was retained inside the ELP nanoparticle core.

B1: FKBP-S48I48: fusion protein: FKBP inserted at N-terminus of ELP diblock copolymer S48I48; assembles nanoparticles above CMT (protein)
chain: [about 100 residues skipped]GVPGSGVPGSGVPGSGVPGSGVPGSGVPGSGVPGSGVPGSGVPGSGVPGSGVPGSGVPGSGVPGSGVPGSGVPGSGVPGSGVPGSGVPGSGVPGSGVPGSGVPGSGVPGSGVPGSGVPGSGVPGSGVPGSGVPGSGVPGSGVPGSGVPGSGVPGSGVPGSGVPGSGVPGSGVPGSGVPGSGVPGSGVPGSGVPGSGVPGSGVPGSGVPGSGVPGSGVPGSGVPGSGVPGSGVPGSGVPGSGVPGIGVPGIGVPGIGVPGIGVPGIGVPGIGVPGIGVPGIGVPGIGVPGIGVPGIGVPGIGVPGIGVPGIGVPGIGVPGIGVPGIGVPGIGVPGIGVPGIGVPGIGVPGIGVPGIGVPGIGVPGIGVPGIGVPGIGVPGIGVPGIGVPGIGVPGIGVPGIGVPGIGVPGIGVPGIGVPGIGVPGIGVPGIGVPGIGVPGIGVPGIGVPGIGVPGIGVPGIGVPGIGVPGIGVPGIGVPGIGY
share of rapamycin bound to FKBP domain (FKBP-S48I48 nanoparticles): about 30% | share of rapamycin encapsulated in nanoparticle core (FKBP-S48I48 nanoparticles): about 70% | releasing half-time of rapamycin bound to FKBP (dialysis, FKBP-bound population): 58 h | releasing half-time of rapamycin encapsulated in nanoparticle core (dialysis, core-entrapped population): about 2 hrs
